These are yes or no findings as the source states them, for the method shown. Binding seen in cells or lysates may run through a third protein. Some binding calls cover weakened binding; strength is not graded here.

Amino acid sequences for entries named in this document (tags omitted).
UniProt Q08024: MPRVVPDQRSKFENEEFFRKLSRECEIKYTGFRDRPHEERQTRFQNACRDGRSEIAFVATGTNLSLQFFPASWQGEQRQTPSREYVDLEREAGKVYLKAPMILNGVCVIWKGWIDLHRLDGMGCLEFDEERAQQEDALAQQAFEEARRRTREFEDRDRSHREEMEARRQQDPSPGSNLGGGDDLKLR

Consider one molecule from publication PMC2828485.

In the assay the target is Flag-HA-CBFβ (stably expressed in C2C12) (mouse) (UniProt Q08024). Nature of the assay: co-IP; simple-affinity purification on Flag resin of Flag-HA-CBFβ from proliferating C2C12-CBFβ cells (3 g pellet) against C2C12 control cells; western blot.

B1: Suv39h1 (endogenous, C2C12) (enzyme, UniProt O54864 1-412)
chain: MAENLKGCSVCCKSSWNQLQDLCRLAKLSCPALGVSKKNLYDFEVEYLCDYKKIREQEYYLVKWRGYPDSENTWEPRQNLKCIRVLKQFHKDLERELVRRHRRSKPPRHLDPNLANYLVQKAKQRRALQRWEQELNAKRSHLGRITVENEVDLDGPPRSFVYINEYRVGEGITLNQVAVGCECQDCLLAPTGGCCPGASLHKFAYNDQGQVRLKAGQPIYECNSRCCCGYDCPNRVVQKGIRYDLCIFRTNDGRGWGVRTLEKIRKNSFVMEYVGEIITSEEAERRGQIYDRQGATYLFDLDYVEDVYTVDAAYYGNISHFVNHSCDPNLQVYNVFIDNLDERLPRIAFFATRTIWAGEELTFDYNMQVDPVDMESTRMDSNFGLAGLPGSPKKRVRIECKCGTTACRKYLF
As to B1, the binding result was “binds”.
